From ChEMBL document CHEMBL1201862, “PubChem BioAssay data set” (2004) come the findings set out here.

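Briefly, cells in 96-well plates were exposed to five compound concentrations for 48 h, and endpoints were estimated by linear interpolation. GI50 is the concentration that inhibits growth by half.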 Activity calls are given as the source filed them. No stated cut-off is given here; in the data, active = GI50 up to about 1.1 µM and inactive = higher.

In this assay the test system is NCI-H322M. Description: growth of human tumour cells (NCI), 48 h.
Take `O=c1cc[nH]c2ccc3nn[nH]c3c12`: the GI50 was inactive: > 100 µM.
For `CCN(CC)CCN1C(=O)c2cccc3cc(N)cc(c23)C1=O` the value was inactive: 4.95 µM.
Consider `CCN(CC(=O)O)C(=O)c1cccnc1`, for which the GI50 is inactive: > 100 µM.
To `CC(SC1=CC(=O)c2c(O)ccc(O)c2C1=O)C(=O)O` (configuration not stated) belongs inactive: > 100 µM; to `COc1ccc(C(c2ccc(C(C)C)cc(=O)c2O)c2ccc3cccnc3c2O)cc1` (configuration not stated), inactive: 3.23 µM.
Turning to `O=C1OCC2=C1C(c1ccc(Cl)cc1)c1cc3c(cc1O2)OCO3` (configuration not stated), the GI50 was inactive: 8.32 µM.
As for `CSc1cc(Cl)c(C)cc1S(=O)(=O)NC(=O)NNc1ccc(C)cc1`, the GI50 was inactive: 95.1 µM.
Take `CCN(CC)c1c(C(=O)/C=C/c2ccc(Cl)cc2)c(-c2ccccc2)nn(C)c1=O`: the GI50 is inactive: 1.96 µM.
Take `CCOC(=O)NC(Nc1ccc(C)cc1)(C(F)(F)F)C(F)(F)F`: the GI50 is inactive: > 100 µM.
As to `CC1=NN(C(=O)CSc2nc3ccc(I)cc3c(=O)n2Cc2ccccc2)C(=O)C1`, the GI50 was inactive: 33.7 µM.
To `O=C(O)c1cccc2c1/C(=N/Nc1ccccc1)CC2` belongs inactive: > 100 µM.
To `C[C@]12Cc3cnn(-c4ccc(F)cc4)c3NC1CC[C@@H]1C2CC[C@@]2(C)C1CC[C@@H]2O` (some centres not stated) belongs inactive: 13 µM; to `C[C@H](CCC(=O)NN)[C@H]1CC[C@H]2[C@@H]3CC[C@@H]4C[C@H](O)CC[C@]4(C)[C@H]3CC[C@]12C`, inactive: > 76.4 µM; to `CCOP1(=O)C=C(C)C(Cl)=C(C)C1` (configuration not stated), inactive: 46.1 µM.
As to `Cc1cc(NS(=O)(=O)c2ccc(Nc3c4ccccc4nc4c(C(=O)NC(CO)(CO)CO)cccc34)cc2)no1`, the GI50 was inactive: 34 µM.
With `CCN1C/C(=C\c2ccc(Cl)cc2)C2=NN(c3ccccc3)C(c3ccc(Cl)cc3)C2C1` (configuration not stated), the GI50 was inactive: > 100 µM.
In the case of `C=C1CC[C@@H](CCC2CCC3(OC2)O[C@]2(O)CC[C@@]3(C)OC2(C)C)C(C)(C)[C@H]1C/C=C1\CCOC1=O` (some centres not stated), the GI50 was inactive: 29.1 µM.
Turning to `CCOC(=O)C1=C(C)N(NC(=O)OC)C2(N)N(NC(=O)OC)C(C)=C(C(=O)OCC)C12C#N` (configuration not stated), the GI50 was inactive: > 100 µM.
Regarding `COc1cc(OC)c2c(O)cc(CC(C)O)cc2c1` (configuration not stated), the GI50 was inactive: > 100 µM.
For `COC(=O)[C@@H](Nc1ccccc1)[C@@]1(C(=O)OC)SC12c1ccccc1-c1ccccc12` the value was inactive: > 100 µM.
For `Cc1cc(C(C)(C)C)cc(Cc2cc(C(C)(C)C)cc(Cc3cc(C(C)(C)C)cc(C)c3O)c2O)c1O` the value was inactive: 9.35 µM; for `CCO/C=N/C1=C(C#N)C(c2ccc(Cl)cc2)c2c(-c3ccccc3)nn(-c3ccccc3)c2O1` (configuration not stated), inactive: 16.2 µM.
Take `N#Cc1c(N2CCCC2)ncn(-c2ccccc2)c1=S`: the GI50 was inactive: > 100 µM.
With `CCOP(=O)(OCC)C1C(=O)O[C@H]2CCCC[C@@H]12` (some centres not stated), the GI50 is inactive: > 100 µM.
To `Cc1cccc2c1CCC21OC(=O)c2c1ccc1ccccc21` (configuration not stated) belongs inactive: 91.2 µM; to `CC1C(OS(=O)(=O)c2ccc3nc(S)sc3c2)CC2C3(C)CCC2(C(C)C(=O)O)C(O)C13` (configuration not stated), inactive: 53.8 µM.
In the case of `COc1ccc(-c2cc(-c3ccncc3)nc(N)c2-c2ccc(F)cc2)cc1`, the GI50 was inactive: 86.3 µM.
For `COc1ccc2c(c1)OCC1=C2Oc2ccccc2C1` the value was inactive: 69.8 µM.
With `COC(=O)c1c(O)c(C#N)c2[nH]c3ccccc3n2c1=O`, the GI50 was inactive: > 100 µM.
For `CCCCC1Cc2ccccc2-c2n1c1ccccc1[n+]2C` (configuration not stated) the value was inactive: 51.8 µM; for `CCN(CC)CCC(=O)/C=C/c1ccc(C)cc1`, inactive: 15.6 µM.
For `CC(C#N)Nc1ccc(Oc2ccc(C(C)(C)c3ccc(Oc4ccc(NC(C)C#N)cc4)cc3)cc2)cc1` (configuration not stated), the GI50 is inactive: > 100 µM.
To `C#C[C@@H](OC(=O)c1ccc([N+](=O)[O-])cc1)[C@@H]1C[C@H]2O[C@@H]([C@H](C/C=C/CC)OC(=O)c3ccc([N+](=O)[O-])cc3)C[C@H]2O1` belongs inactive: > 100 µM; to `Cc1ccc(C2CC(c3ccco3)=NN2c2ccccc2)o1` (configuration not stated), inactive: > 100 µM.
For `O=c1cccccc1NCCCCCCCCCNc1cccccc1=O` the value was inactive: 25.8 µM; for `CCOc1ccc(/N=C\c2ccc3cc(C)ccc3n2)cc1`, inactive: > 100 µM.
To `CCOC(=O)[C@H](Cc1ccc(O)cc1)/N=C1/[C@H]2CCC[C@]1(O)[C@@](C)([N+](=O)[O-])C2` belongs inactive: > 100 µM; to `CCOc1cc(-c2nc3ccccn3c2/N=C/c2cc(Br)ccc2O)ccc1O`, inactive: 42.7 µM.
As to `Cn1nc(C(=O)N2CC(CCl)c3c2cc(N)c2ccccc32)cc1NC(=O)Nc1cc(C(=O)N2CC(CCl)c3c2cc(N)c2ccccc32)nn1C` (configuration not stated), the GI50 was active: 0.299 µM.
For `CC1CN1c1c(C(=O)/C=C/c2ccc(F)cc2)c(-c2ccccc2)nn(C)c1=O` (configuration not stated), the GI50 is inactive: 17.6 µM.
`C=C(CCC=C(C)C)C1CC=C(C)CC1` (configuration not stated): the GI50 is inactive: 81.3 µM.
To `C=CCNC(=O)CN(CC(=O)O)C1CCCCC1N(CC(=O)O)CC(=O)O` (configuration not stated) belongs inactive: > 100 µM; to `COC1CC(C)C(OC)c2cc(O)cc(c2O)NC(=O)/C(C)=C/C=C\C(C)C(OC(N)=O)/C(C)=C\C(C)C1OC` (configuration not stated), inactive: 4.78 µM; to `O=C(O)CCCN1CCCCC1`, inactive: > 100 µM.
For `CCCCOCCOCCOC1=CC(=O)c2c(O)ccc(O)c2C1=O`, the GI50 is inactive: 1.69 µM.
For `CN1C(=O)C2(C)SC1(c1ccccc1)C1C(=O)N(c3ccccc3)C(=O)C12` (configuration not stated), the GI50 was inactive: > 100 µM.
As to `CN(C)C(=S)/N=c1\ss/c(=N\C(=S)N(C)C)n1-c1ccc2c(c1)OCO2`, the GI50 was inactive: > 100 µM.
To `CCN(CC)CCCCC1CCN(CC(=O)N2c3cc(Cl)ccc3NC(=O)CC2C)CC1` (configuration not stated) belongs inactive: > 100 µM; to `NC(=O)CCSC(CC(=O)c1ccc(Cl)cc1)c1ccc(Cl)cc1` (configuration not stated), inactive: 36.5 µM; to `O=C(/C=C/c1ccccc1F)C(c1ccccc1)c1ccccc1`, inactive: 5.92 µM.
For `COc1ccc(-c2cc(-c3ccccc3)n(C3OC(COC(C)=O)C(OC(C)=O)C(OC(C)=O)C3OC(C)=O)c(=S)c2C#N)cc1` (configuration not stated) the value was inactive: 13.5 µM; for `C/C=C1\CNC1C(=O)O` (configuration not stated), inactive: > 100 µM.
With `CCOC(=O)C1(C(=O)OCC)CN(CC)CN(c2ccccc2)C1`, the GI50 was inactive: > 100 µM.
To `Oc1ccc2ccccc2c1/N=N/c1ccc(/N=N/c2ccccc2)cc1` belongs inactive: > 100 µM; to `CCCCc1ccc(Nc2nc(N)c3ncn(COCCO)c3n2)cc1`, inactive: 42 µM.
Turning to `CC(C)CC1c2[nH]c3ccccc3c2C[C@H]2C(=O)NC(COC(C)(C)C)C(=O)N12` (some centres not stated), the GI50 is inactive: 31.8 µM.
With `O=c1c(C(c2ccc(C(c3c(O)oc4cc(O)ccc4c3=O)c3c(O)oc4cc(O)ccc4c3=O)cc2)c2c(O)oc3cc(O)ccc3c2=O)c(O)oc2cc(O)ccc12`, the GI50 was inactive: > 100 µM.
